# Values joined by “and” are separate entries in the source; they are usually repeats but may differ in a detail not shown here. Identical values can stand only once. Among all 220,000 compounds or so, about 16,000 (7.3%) were called active. The inconclusive results got no clear call from the source; some entries with a clear call stand among them for comparison. Calls come from the whole dose curve; as a rule, active = well fitted inhibition curve with a large enough effect (not every such curve was filed as active); inconclusive = small, poorly fitted or top-dose-only effect, or another doubt; inactive = no such curve, though single readings can be large or run the other way. Where the call is inconclusive, the potency comes from a doubtful curve fit. Numbered stars: 1 amine (or outer) side, 2 acyl side, 3 side chain; on linkers, the order of the positions; unused ones are H or OH. Bridge positions count the residues as written; N and C are the ends. Square brackets hold non-standard residues; d marks the D form. Peptide text beside a SMILES is read from it. I, II: the chains in the order shown. Actinocin(9to1) = Cc1c2oc3c(C)ccc(C(=O)[*:1])c3nc-2c(C(=O)[*:2])c(N)c1=O; NMeV = CN[C@H](C(=O)O)C(C)C; Sar = CNCC(=O)O
# Biological target: Aldehyde dehydrogenase 1A1 (Homo sapiens) (UniProt P00352)
# UniProt P00352, sequence (P00352 whole entry, looked up): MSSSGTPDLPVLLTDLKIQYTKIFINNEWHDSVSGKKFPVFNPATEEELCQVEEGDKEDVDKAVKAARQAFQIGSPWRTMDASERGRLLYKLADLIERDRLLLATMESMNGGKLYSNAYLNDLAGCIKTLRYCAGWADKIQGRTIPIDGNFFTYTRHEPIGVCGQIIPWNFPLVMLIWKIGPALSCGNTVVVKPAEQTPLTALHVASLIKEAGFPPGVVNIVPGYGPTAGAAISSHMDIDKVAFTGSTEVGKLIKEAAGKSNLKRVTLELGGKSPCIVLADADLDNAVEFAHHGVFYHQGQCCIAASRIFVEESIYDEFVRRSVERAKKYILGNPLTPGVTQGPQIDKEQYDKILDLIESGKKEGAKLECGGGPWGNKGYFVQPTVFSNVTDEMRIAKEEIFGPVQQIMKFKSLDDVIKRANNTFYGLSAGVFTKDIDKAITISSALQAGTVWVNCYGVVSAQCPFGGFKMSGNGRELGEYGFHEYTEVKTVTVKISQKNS
# Assay: qHTS Assay for Inhibitors of Aldehyde Dehydrogenase 1 (ALDH1A1)
# Settings: Purified ALDH1A1, NADH fluorescence, propionaldehyde substrate; series mostly up to 75.3 µM
# Potency is the fitted concentration of half-maximal effect; tags give direction and shape of the fitted curve.
row,Compound,Potency
1,Cc1ccc(NC(=O)CSc2nnc(-c3cnccn3)n2Cc2ccco2)cc1,inactive
2,O=C(c1cc(C(F)(F)F)cc(C(F)(F)F)c1)N1CCC[C@@]2(CCN(Cc3ccccc3)C2)C1,inactive
3,COc1ccc(CC(=O)Nc2cc(C)on2)cc1OC,inactive
4,CCCCNc1nc(C)nc2c1nc(-c1ccccc1)n2CCCN(C)C,"inconclusive: 35.5 µM [inhibitor, partial curve]"
5,CCC(=O)Nc1nnc(-c2cccs2)s1,"inconclusive: 39.8 µM [inhibitor, single point]"
6,Cn1cccc1C(=S)N=P(C1CCCCC1)(N1CCOCC1)N1CCOCC1,"inconclusive: 39.8 µM [inhibitor, single point]"
7,O=C(NCc1ccccn1)C(=O)Nc1nc(C23CC4CC(CC(C4)C2)C3)cs1,"inconclusive: 39.8 µM [inhibitor, single point]"
8,N#CCCn1c(=O)c(-c2cccc(C#N)c2)nc2cnc(N3CCOCC3)nc21,"inconclusive: 39.8 µM [inhibitor, single point]"
9,COC(CNC(=O)c1ccc2nc(-c3ccccc3)c(-c3ccccc3)nc2c1)OC,"inconclusive: 31.6 µM [inhibitor, partial curve]"
10,COC(=O)[C@@]1(Cc2ccc(OC)cc2)[C@H]2c3cc(C(=O)N4CCCC4)n(Cc4ccc(OC(F)(F)F)cc4)c3C[C@H]2CN1C(=O)c1ccccc1,"inconclusive: 35.5 µM [inhibitor, single point]"
11,COc1ccccc1NC(=O)CN(c1ccc(C)cc1)S(=O)(=O)c1c(C)n[nH]c1C,"inconclusive: 39.8 µM [inhibitor, single point]"
12,O=C(NCCc1c[nH]c2ccccc12)C1CCC(Cn2c(=S)[nH]c3ccccc3c2=O)CC1 (stereo not drawn),inactive
13,CCc1ccccc1NC1Nc2cc(C)nn2S1 (stereo not drawn),"inconclusive: 15.8 µM [inhibitor, partial curve]"
14,COCCCn1c(=S)[nH]c2ccc(N3CCOCC3)cc2c1=O,"inconclusive: 37.7 µM [inhibitor, single point]"
15,CC1(C)Cc2c(c(N3CCOCC3)nc3sc4c(N5CCOCC5)nnnc4c23)CS1,"inconclusive: 31.6 µM [inhibitor, single point]"
16,O=c1c2c(-c3cccs3)csc2ncn1-c1ccc(Br)cc1,"inconclusive: 25.1 µM [inhibitor, partial curve]"
17,COc1ccc(CC(=O)Nc2cc(C)ccn2)cc1,"inconclusive: 20 µM [inhibitor, single point]"
18,COc1ccc2c(c1)c(CC(=O)OCC(=O)O)c(C)n2C(=O)c1ccc(Cl)cc1,inactive
19,COc1ccc(C(=O)Nc2ccc(S(=O)(=O)Nc3nccnc3OC)cc2)cc1,"inconclusive: 39.8 µM [inhibitor, single point]"
20,COc1ccc(-c2noc(C)c2-c2ccc3ccccc3n2)c(O)c1,"inconclusive: 15.8 µM [inhibitor, partial curve]"
21,COc1cc(-c2ncc3ccccn23)cc(OC)c1OC,"inconclusive: 22.4 µM [inhibitor, partial curve]"
22,Cc1cnc(NC(=O)Cc2c[nH]c3ccccc23)s1,active: 25.1 µM
23,COc1ccc(C(=O)C2CCCN(C(=O)c3ccc4cc[nH]c4c3)C2)c(C)c1 (stereo not drawn),"inconclusive: 22.4 µM [inhibitor, single point]"

row,Compound,Potency
1,CC1CCc2sc(C(=O)NN)cc2C1 (stereo not drawn),active: 7.08 µM
2,COc1ccccc1C1CCN(C(=O)c2cnn(-c3ccccc3)c2C)CC1,"inconclusive: 39.8 µM [inhibitor, single point]"
3,COCCNC(=O)c1c(N)n(/N=C/c2cccs2)c2nc3ccccc3nc12,"inconclusive: 31.6 µM [inhibitor, partial curve]"
4,COc1ccccc1NC(=O)c1ccc(NS(=O)(=O)c2ccc(F)c(Cl)c2)cc1,"inconclusive: 39.8 µM [inhibitor, partial curve, poor fit]"
5,Cc1ccc(Nc2ccc(C(=O)O)cc2N)cc1,inactive
6,Cc1cc2c(c(=O)n1Cc1ccco1)C(c1cccnc1)C(C#N)=C(N)O2 (stereo not drawn),active: 7.51 µM
7,C=CC(C)N1C(=O)S/C(=C\c2ccc(N3CCOCC3)cc2C)C1=O (stereo not drawn),"inconclusive: 14.1 µM [inhibitor, partial curve]"
8,CCN1CCCC1Cn1c(-c2ccccc2)nc2c(NCc3ccccc3)nc(C)nc21 (stereo not drawn),"inconclusive: 31.6 µM [inhibitor, single point]"
9,COc1cc(C(=O)NC(=S)Nc2ccc3c(c2)C(=O)N(C)C3=O)cc(OC)c1OC,active: 1 µM
10,Nc1nccc(-c2ccc(-n3cnc4ccccc43)cc2)n1,"inconclusive: 39.8 µM [inhibitor, single point]"
11,Cn1c(SCC(=O)N2CCCc3ccccc32)nnc1-c1c[nH]c2ccccc12,"inconclusive: 39.8 µM [inhibitor, single point]"
12,COc1cc(/C=C2\SC(=Nc3cccnc3)NC2=O)cc(OC)c1OC,inactive
13,COc1cc(/C=N/NC(=O)c2ccc(-c3ccccc3)cc2)cc(OC)c1OC,"inconclusive: 17.8 µM [inhibitor, partial curve]"
14,Cc1ccc2nc(Nc3nc(C)cc(-c4ccccc4)n3)[nH]c(=O)c2c1,"inconclusive: 1 µM [inhibitor, partial curve]"
15,Cc1nnc(N/N=C/c2cc(C)n(-c3ccc(F)cc3)c2C)n1N,inactive
16,CC1(C)Oc2ccc(C(=O)NC3CCCC3)cc2N(CC(=O)N2CCOCC2)C1=O,"inconclusive: 39.8 µM [inhibitor, single point]"
17,COc1ccc(O)c(C(=O)c2coc(=N)c(C(=O)Nc3ccc(SC(F)F)cc3)c2)c1,"inconclusive: 3.98 µM [inhibitor, full curve, poor fit]"
18,COc1ccccc1C(=O)Nc1nnn(C)n1,inactive
19,Cc1cc(C)n(-c2nc(SCCN(C)C)c3c4c(sc3n2)CCCC4)n1,"inconclusive: 39.8 µM [inhibitor, single point]"
20,FB(F)F,inactive
21,CCN(CC(=O)NC1CCS(=O)(=O)C1)S(=O)(=O)c1ccc(C)c(C)c1 (stereo not drawn),inactive
22,CN=C(c1ccco1)n1c(=S)nc(-c2ccco2)n(C)c1=S,active: 10 µM
23,CC(C)CCCC(C)C1CCC2C3CC=C4CC(O)CCC4(C)C3CCC12C (stereo not drawn),inactive

row,Compound,Potency
1,CCOC(=O)N1CCN(CC(=O)Nc2ccc(Oc3ccccc3)cc2)CC1,active: 25.1 µM
2,COc1cccc(/C=C2\N=C(SC)SC2=O)c1OC,active: 31.6 µM
3,CCOc1cc(C(=O)OCC(=O)NC(C)c2ccccc2)ccc1OCC(=O)N1CCOCC1 (stereo not drawn),"inconclusive: 39.8 µM [inhibitor, single point]"
4,Cc1ccc(C(=O)C2=C(O)C(=O)N(c3ncccn3)C2c2ccc(Cl)cc2)o1 (stereo not drawn),"inconclusive: 25.1 µM [inhibitor, single point]"
5,COCCNC(=O)C1(C)Oc2ccccc2NC1=O (stereo not drawn),inactive
6,C=CCc1ccc(OCC(O)CN2CCN(Cc3ccc(Cl)cc3)CC2)c(OC)c1 (stereo not drawn),"inconclusive: 35.5 µM [inhibitor, single point]"
7,Cc1ccc(NC2CC(=O)N(c3ccc(C)cc3)C2=O)cc1 (stereo not drawn),inactive
8,COC(=O)[C@@H]1CC[C@H](C)[C@@H](c2ccc(C)cc2)N1C(=O)c1ccc(/C=N/O[C@@H](C)c2cn([C@H](CO)Cc3ccccc3)nn2)cc1,inactive
9,O=C(OCC(=O)N1CCN(C(=O)c2ccco2)CC1)c1ccccc1C(=O)c1ccccc1,inactive
10,Cc1cccc(-n2cc[nH]c2=S)c1C,active: 11.2 µM
11,COc1cccc(N2CCN(C3CC(=O)N(c4ccc(Cl)c(Cl)c4)C3=O)CC2)c1 (stereo not drawn),"inconclusive: 35.5 µM [inhibitor, single point]"
12,COc1cc(C(=O)Nc2cc(C)ccn2)cc(OC)c1OC,inactive
13,COC(=O)CC1c2ccccc2C=C(/C=C/c2ccc3c(c2)OCO3)N1C(=O)OC (stereo not drawn),"inconclusive: 3.16 µM [inhibitor, partial curve]"
14,O=C(CCc1nnc(CCCCc2ccccc2)o1)NCCN1CCOC1=O,active: 0.112 µM
15,Cc1ccc(Nc2c([N+](=O)[O-])c(=O)n(C)c3ccccc23)cc1C,active: 8.91 µM
16,CCOC(=O)C1=C(c2ccccc2)c2ccc(OC)cc2N(S(=O)(=O)C(F)(F)F)C1C(=O)OCC (stereo not drawn),"inconclusive: 39.8 µM [inhibitor, single point]"
17,Cc1ccc(C(=O)CNc2ccc(Br)cc2)cc1,active: 17.8 µM
18,CCSC(N)=Nc1ccc(C(F)(F)F)cc1,"inconclusive: 25.1 µM [inhibitor, partial curve, poor fit]"
19,"Cc1c2oc3c(C)ccc(C(=O)N[C@@H]4C(=O)N[C@H](C(C)C)C(=O)N5CCC[C@H]5C(=O)N(C)CC(=O)N(C)[C@@H](C(C)C)C(=O)O[C@@H]4C)c3nc-2c(C(=O)N[C@@H]2C(=O)N[C@H](C(C)C)C(=O)N3CCC[C@H]3C(=O)N(C)CC(=O)N(C)[C@@H](C(C)C)C(=O)O[C@@H]2C)c(N)c1=O (I: T[dV]P[Sar][NMeV] / II: T[dV]P[Sar][NMeV]; ester I:1-I:C, II:1-II:C; linker I:N-II:N via Actinocin(9to1))","inconclusive: 22.4 µM [inhibitor, partial curve] and inconclusive: 28.2 µM [inhibitor, partial curve]"
20,COc1ccc(CCN2C(=O)C3C4C=CC(C4)C3C2=O)cc1OC (stereo not drawn),"inconclusive: 20 µM [inhibitor, partial curve]"
21,COc1ccc(OC)c(Cc2nnc(CCC(=O)NCc3ccsc3)o2)c1,inactive
22,Cc1ccc(-c2ccc(CCC(=O)O)n2CC2CCCO2)cc1 (stereo not drawn),"inconclusive: 35.5 µM [inhibitor, single point]"

# Source: PubChem BioAssay AID1030 (National Center for Advancing Translational Sciences (NCATS), 2008)
